Data on 31 sequences can be found in publication PMC12820563, “FoxP3 forms a head-to-head dimer in vivo and stabilizes its multimerization on adjacent microsatellites”.

The other results are listed elsewhere or left out.

For this assay, the target named is T1, MBP-FoxP1dN (Mus musculus, UniProt P58462 326-579).
T1 sequence: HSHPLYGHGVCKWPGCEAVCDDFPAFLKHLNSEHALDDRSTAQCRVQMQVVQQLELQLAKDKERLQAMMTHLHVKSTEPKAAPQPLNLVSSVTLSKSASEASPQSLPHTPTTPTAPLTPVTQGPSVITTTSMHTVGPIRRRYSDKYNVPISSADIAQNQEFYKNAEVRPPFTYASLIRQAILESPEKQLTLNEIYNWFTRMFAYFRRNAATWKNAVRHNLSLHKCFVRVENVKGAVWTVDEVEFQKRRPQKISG
In words: PD-seq (MBP pull-down with sequencing); 20 mM Tris-HCl pH 7.5, 100 mM NaCl, 1.5 mM MgCl2, 0.4 uM protein, 0.1 uM dsDNA library, 30 min, room temperature, amylose pull-down; high values mean tight binding. The conditions noted are these: protein: recombinant; tags: His6-MBP; chain copies: 2; dsDNA, one strand shown. In outline:
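Protein and DNA were mixed at 0.4 µM and 0.1 µM and held for 30 min at room temperature in Tris pH 7.5 buffer with NaCl and MgCl2; the protein was a His6-MBP-tagged, N-terminally truncated mouse FoxP3 or FoxP1 fragment from E. coli, and the DNA a Klenow-filled double-stranded degenerate library. Amylose resin captured the complexes, which were washed three times. Binding is read as reads-per-million enrichment of pull-down versus input after Illumina sequencing, with replicates pooled.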
“GATGATTGTTCTCCCAGCTGATGAATTCCGCGCCTCGAGTAAACAAATTTTCCTAATCTTTCTGTTCAAGCGCCATCTAC”: the binding signal is 0.852 RPM ratio (pull-down/input).

Consider “GATGATTGTTCTCCCAGCTGATGAATTGCTCATCTCGAGTAAACAAATTTTCCTAATCTTTCTGTTCAAGCGCCATCTAC”, for which the binding signal was 0.978 RPM ratio (pull-down/input).

On to “GATGATTGTTCTCCCAGCTGATGAATTATCAAGGTCGAGTAAACAAATTTTCCTAATCTTTCTGTTCAAGCGCCATCTAC”, for which the binding signal is 0.91 RPM ratio (pull-down/input).

“GATGATTGTTCTCCCAGCTGATGAATTAGGAACTTCGAGTAAACAAATTTTCCTAATCTTTCTGTTCAAGCGCCATCTAC”: the binding signal was 0.84 RPM ratio (pull-down/input).

As for “GATGATTGTTCTCCCAGCTGATGAATTACTTAAATCGAGTAAACAAATTTTCCTAATCTTTCTGTTCAAGCGCCATCTAC”, the binding signal was 1.24 RPM ratio (pull-down/input).

Turning to “GATGATTGTTCTCCCAGCTGATGAATTGATCTGTTCGAGTAAACAAATTTTCCTAATCTTTCTGTTCAAGCGCCATCTAC”, the binding signal was 0.987 RPM ratio (pull-down/input).

Turning to “GATGATTGTTCTCCCAGCTGATGAATTAACTCGTTCGAGTAAACAAATTTTCCTAATCTTTCTGTTCAAGCGCCATCTAC”, the binding signal is 0.871 RPM ratio (pull-down/input).

Consider “GATGATTGTTCTCCCAGCTGATGAATTGGCCGGATCGAGTAAACAAATTTTCCTAATCTTTCTGTTCAAGCGCCATCTAC”, for which the binding signal was 0.771 RPM ratio (pull-down/input).

“GATGATTGTTCTCCCAGCTGATGAATTGTGATATTCGAGTAAACAAATTTTCCTAATCTTTCTGTTCAAGCGCCATCTAC”: the binding signal was 1.38 RPM ratio (pull-down/input).

In the case of “GATGATTGTTCTCCCAGCTGATGAATTTAATCTGTCGAGTAAACAAATTTTCCTAATCTTTCTGTTCAAGCGCCATCTAC”, the binding signal was 0.927 RPM ratio (pull-down/input).

Regarding “GATGATTGTTCTCCCAGCTGATGAATTCAAATCGTCGAGTAAACAAATTTTCCTAATCTTTCTGTTCAAGCGCCATCTAC”, the binding signal is 0.871 RPM ratio (pull-down/input).

For “GATGATTGTTCTCCCAGCTGATGAATTTTTGGCCTCGAGTAAACAAATTTTCCTAATCTTTCTGTTCAAGCGCCATCTAC”, the binding signal was 0.858 RPM ratio (pull-down/input).

On to “GATGATTGTTCTCCCAGCTGATGAATTCCGGTATTCGAGTAAACAAATTTTCCTAATCTTTCTGTTCAAGCGCCATCTAC”, for which the binding signal is 0.906 RPM ratio (pull-down/input).

For the sequence “GATGATTGTTCTCCCAGCTGATGAATTCCGAACATCGAGTAAACAAATTTTCCTAATCTTTCTGTTCAAGCGCCATCTAC”, the binding signal was 0.898 RPM ratio (pull-down/input).

Consider “GATGATTGTTCTCCCAGCTGATGAATTGATCTGGTCGAGTAAACAAATTTTCCTAATCTTTCTGTTCAAGCGCCATCTAC”, for which the binding signal was 0.905 RPM ratio (pull-down/input).

For the sequence “GATGATTGTTCTCCCAGCTGATGAATTGCTCCCGTCGAGTAAACAAATTTTCCTAATCTTTCTGTTCAAGCGCCATCTAC”, the binding signal is 0.978 RPM ratio (pull-down/input).

On to “GATGATTGTTCTCCCAGCTGATGAATTTGCCCGTTCGAGTAAACAAATTTTCCTAATCTTTCTGTTCAAGCGCCATCTAC”, for which the binding signal was 0.889 RPM ratio (pull-down/input).

On to “GATGATTGTTCTCCCAGCTGATGAATTCAACTCTTCGAGTAAACAAATTTTCCTAATCTTTCTGTTCAAGCGCCATCTAC”, for which the binding signal is 0.904 RPM ratio (pull-down/input).

Take “GATGATTGTTCTCCCAGCTGATGAATTTCAACGATCGAGTAAACAAATTTTCCTAATCTTTCTGTTCAAGCGCCATCTAC”: the binding signal was 0.82 RPM ratio (pull-down/input).

As to “GATGATTGTTCTCCCAGCTGATGAATTTCCTCTGTCGAGTAAACAAATTTTCCTAATCTTTCTGTTCAAGCGCCATCTAC”, the binding signal is 0.834 RPM ratio (pull-down/input).

Take “GATGATTGTTCTCCCAGCTGATGAATTTGACGCTTCGAGTAAACAAATTTTCCTAATCTTTCTGTTCAAGCGCCATCTAC”: the binding signal was 0.974 RPM ratio (pull-down/input).

Consider “GATGATTGTTCTCCCAGCTGATGAATTGATCTAATCGAGTAAACAAATTTTCCTAATCTTTCTGTTCAAGCGCCATCTAC”, for which the binding signal was 1.19 RPM ratio (pull-down/input).

On to “GATGATTGTTCTCCCAGCTGATGAATTGTTTGTCTCGAGTAAACAAATTTTCCTAATCTTTCTGTTCAAGCGCCATCTAC”, for which the binding signal is 2.6 RPM ratio (pull-down/input).

Consider “GATGATTGTTCTCCCAGCTGATGAATTACCCGTATCGAGTAAACAAATTTTCCTAATCTTTCTGTTCAAGCGCCATCTAC”, for which the binding signal was 0.971 RPM ratio (pull-down/input).

Consider “GATGATTGTTCTCCCAGCTGATGAATTTGCTCCTTCGAGTAAACAAATTTTCCTAATCTTTCTGTTCAAGCGCCATCTAC”, for which the binding signal was 0.972 RPM ratio (pull-down/input).

On to “GATGATTGTTCTCCCAGCTGATGAATTTGTGGTCTCGAGTAAACAAATTTTCCTAATCTTTCTGTTCAAGCGCCATCTAC”, for which the binding signal is 1.05 RPM ratio (pull-down/input).

Consider “GATGATTGTTCTCCCAGCTGATGAATTGGGACCGTCGAGTAAACAAATTTTCCTAATCTTTCTGTTCAAGCGCCATCTAC”, for which the binding signal is 0.804 RPM ratio (pull-down/input).

As to “GATGATTGTTCTCCCAGCTGATGAATTTACGCAGTCGAGTAAACAAATTTTCCTAATCTTTCTGTTCAAGCGCCATCTAC”, the binding signal was 1.12 RPM ratio (pull-down/input).

Turning to “GATGATTGTTCTCCCAGCTGATGAATTGGGATACTCGAGTAAACAAATTTTCCTAATCTTTCTGTTCAAGCGCCATCTAC”, the binding signal is 0.929 RPM ratio (pull-down/input).

For “GATGATTGTTCTCCCAGCTGATGAATTGCGAATTTCGAGTAAACAAATTTTCCTAATCTTTCTGTTCAAGCGCCATCTAC”, the binding signal was 1.26 RPM ratio (pull-down/input).

Take “GATGATTGTTCTCCCAGCTGATGAATTGATGGAGTCGAGTAAACAAATTTTCCTAATCTTTCTGTTCAAGCGCCATCTAC”: the binding signal is 0.934 RPM ratio (pull-down/input).
